Targets include peptide 130 (human); peptide 23 (human); peptide 131 (human); peptide 122 (human).
What all share (assay): peptide microarray

Consider one molecule from patent US20090136523A1.

B1: rhuMAb 411 (antibody, human IgG1, kappa)
heavy: EVQLVESGAGVKQPGGTLRLTCTASGFSLTTYGVHWVRQAPGKGLEWVGVIWGDGRTDYDAAFMSRVTISKDTSKSTVYLQMNSLRAEDTAVYYCMRNRHDWFDYWGQGTTVTVSS[letters of human IgG1 constant region left out]
light: DILLTQSPSSLSATPGERATITCRASQGIRNNLNWYQQKPGQAPRLLIYYSSNLQSGVPSRFSGSGSGTDFTLTISRLQPEDVAAYYCQQSIKLPFTFGSGTKVEIKRTVAAPSVFIFPPSDEQLKSGTASVVCLLNNFYPREAKVQWKVDNALQSGNSQESVTEQDSKDSTYSLSSTLTLSKADYEKHKVYACEVTHQGLSSPVTKSFNRGEC
As for B1, the Mean Signal Value is 4.3 with peptide 130 (human), 0.00481 with peptide 23 (human), 5.25 with peptide 131 (human) and 0.308 with peptide 122 (human).
